{"source": "PubChem BioAssay AID485281", "about": "(National Center for Advancing Translational Sciences (NCATS), 2010)", "note": "The campaign covered roughly 350,000 compounds. About 260 (0.074%) were called active. This list was built around the results that the source calls inconclusive (neither active nor inactive); the mix of calls is not that of the screen. The call rests on the fitted dose curve; in most records, active means well fitted inhibition curve with a large enough effect; inconclusive means small, poorly fitted or top-dose-only effect; inactive means no such curve, though single readings can be large or run the other way. Potencies of inconclusive entries are doubtful fits and often do not repeat. On the % scale 0 is the no-effect control and ±100 the full control effect; potency means the concentration at half of the fitted maximal effect; tags describe the fitted curve by direction and shape."}
{"target": "Ferritin light chain (Equus caballus) (UniProt P02791)", "sequence (P02791 whole entry, looked up)": "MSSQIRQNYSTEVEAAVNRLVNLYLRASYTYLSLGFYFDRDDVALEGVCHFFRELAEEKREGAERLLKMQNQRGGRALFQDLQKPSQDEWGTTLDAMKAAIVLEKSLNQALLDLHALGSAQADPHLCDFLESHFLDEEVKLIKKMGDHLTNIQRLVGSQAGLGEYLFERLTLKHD", "assay": "qHTS Assay for Identification of Novel General Anesthetics; further: nearly all actives have a fitted effect of over 20% in size", "conditions": "apoferritin/1-aminoanthracene competitive binding, fluorescence; activity change, negative = displacement: at 77.5 µM (top of the series)", "method_in_brief": "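Steps: apoferritin (10 uM) was premixed with half-saturated 1-AMA in PBS, compounds were pin-transferred, plates stood 10 min at room temperature, fluorescence was read at 380/535 nm, and curves were fitted with a Hill equation.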"}
{"compound": "O=C(COc1ccc(F)cc1)c1c(O)cc(O)cc1O", "activity change, negative = displacement": "inactive: -2.19%"}
{"compound": "Cc1ccccc1-c1nc2ccccc2c(=O)n1/N=C/c1ccccc1[N+](=O)[O-]", "Potency": "inconclusive: 15.8 µM [inhibitor, partial curve]"}
{"compound": "Clc1ccccc1/C=C/c1ccnc2ccccc12", "Potency": "inconclusive: 28.2 µM [inhibitor, partial curve]"}
{"compound": "CCCCn1ccnc1C(=O)c1cccc(S(=O)(=O)N2CC(C)CC(C)C2)c1", "note": "(centres undefined)", "Potency": "inconclusive: 31.6 µM [inhibitor, partial curve]"}
{"compound": "CC/C(=N\\NC(=S)Nc1ccc(OC)cc1)c1ccc(OC(F)F)cc1", "Potency": "inconclusive: 39.8 µM [inhibitor, single point]"}
{"compound": "Clc1nccnc1N/N=C/c1ccc(Br)cc1", "activity change, negative = displacement": "inactive: -2.9%"}
{"compound": "CC(C)Oc1cccc(C(=O)C2CCCN(C(=O)CCc3cnn(C)c3)C2)c1", "note": "(centres undefined)", "activity change, negative = displacement": "inactive: -14.1%"}
{"compound": "CN(CC(=O)N1CCN(c2ncccn2)CC1)S(=O)(=O)c1ccc(Cl)cc1", "activity change, negative = displacement": "inactive: -1.76%"}
{"compound": "Cc1ccc(OCC(=O)Nc2ccc(C)c(S(=O)(=O)N3CCCCCC3)c2)c([N+](=O)[O-])n1", "Potency": "inconclusive: 31.6 µM [inhibitor, partial curve]"}
{"compound": "COc1cccc(C(=O)Nc2ccc3c(c2)C(=O)N(CC2CCCO2)C3=O)c1", "note": "(centres undefined)", "Potency": "inconclusive: 25.1 µM [inhibitor, partial curve]"}
{"compound": "Cc1c(C(=O)Nc2ccc(-c3nnc4n3CCCCC4)cc2)oc2c1ccc1ccccc12", "Potency": "inconclusive: 50.1 µM [inhibitor, single point]"}
{"compound": "CCC1CC=CC2C1C(=O)N(Cc1ccccc1)C2c1ccoc1", "note": "(centres undefined)", "Potency": "inconclusive: 31.6 µM [inhibitor, partial curve]"}
{"compound": "Cc1nc(SCC(=O)c2ccc(Cl)cc2)c([N+](=O)[O-])[nH]1", "Potency": "inconclusive: 35.5 µM [inhibitor, partial curve]"}
{"compound": "CN(NC(=O)c1ccco1)c1nc2ccccc2nc1C(F)(F)F", "activity change, negative = displacement": "inactive: -5.57%"}
{"compound": "O=C1[C@H]2[C@H]3[C@H](O)[C@H](O)C/C(=N/OCc4ccccc4)[C@@H]3CC[C@@H]2C(=O)N1c1cccc(Oc2ccccc2)c1", "activity change, negative = displacement": "inactive: 3.32% [at 15.3 µM]"}
{"compound": "CC1(C)Cc2c(C#N)c(NCCc3ccccc3)nc(-c3ccco3)c2CO1", "activity change, negative = displacement": "inactive: -13.6%"}
{"compound": "O=[N+]([O-])c1ccc(CNc2cccc(F)c2)s1", "Potency": "inconclusive: 44.7 µM [inhibitor, partial curve]"}
{"compound": "CCCCCCCCCCOC(=O)NC1CCS(=O)(=O)C1", "note": "(centres undefined)", "Potency": "inconclusive: 25.1 µM [inhibitor, partial curve]"}
{"compound": "CCN(c1ccccc1)S(=O)(=O)c1ccc2[nH]cc(C(=O)NC3CCCCC3)c(=O)c2c1", "Potency": "inconclusive: 6.31 µM [inhibitor, partial curve]"}
